# Experimental data reported in PubChem BioAssay AID1671193 (National Center for Advancing Translational Sciences (NCATS), 2021).
# The whole screen tested about 150,000 compounds, of which about 180 (0.12%) were called active. Inconclusive results, whose numbers are uncertain, are shown with a selection of clear calls. Calls follow the shape of the dose curve; as a rule, active = well fitted cell-killing curve with a large enough effect; inconclusive = small, poorly fitted or top-dose-only effect, or effect the other way; inactive = flat fitted curve, though single readings scatter. Potencies beside an inconclusive call are fits to weak or partial responses and may not hold up.
# Assay: GF-AFC viability counterscreen for inhibitors of alpha-synuclein gene (SNCA) expression; also: nearly all actives have a fitted effect of over 30% in size
# Conditions: HEK-293-SNCA-luc viability, GF-AFC fluorescence, 24 h; series mostly up to 57.1 µM
# Outline: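 Cytotoxicity counterscreen: after 24 h compound treatment of genome-edited SNCA-luciferase HEK-293 cells, live-cell protease substrate GF-AFC read by fluorescence after 30 min; activity scaled between DMSO (0%) and medium-only (-100%), curves Hill-fitted.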
# Potency is read from the fitted curve at half-maximal effect; tags tell the direction and shape of the fitted curve.
row,SMILES,Potency
1,O=C(Cc1ccccc1F)N1CCCN(c2cc(-c3ccc(Cl)cc3)[nH]n2)CC1,"inconclusive: 17.8 µM [cytotoxic, single point]"
2,COc1ccc2nc3n(c2c1)[C@@H](CNC(=O)c1ccccc1)COC3,inactive
3,O=C(COc1ccccc1)Nc1ccc2c(c1)CN(CCc1ccc(F)cc1)C(=O)CO2,inactive
4,CCN(CC)S(=O)(=O)c1ccc2c(c1)N(CC(=O)N1CCN(c3cccc(C)c3)C(C)C1)C(=O)CO2 (configuration not stated),"inconclusive: 4.47 µM [cytotoxic, partial curve]"
5,CCn1ncc(N2CCCC(CC(=O)NC3CCCCC3)C2)cc1=O (configuration not stated),inactive
6,Cc1nn2c(c1-c1ccnn1C(C)C)N(Cc1ccc(C(=O)O)s1)CCC2,"inconclusive: 3.55 µM [cytotoxic, full curve, poor fit]"
7,Cc1c(C(=O)N2CCCC2)oc2c1-c1nn(CC(=O)NCc3ccc(OC(C)C)cc3)cc1CC2,"inconclusive: 35.5 µM [cytotoxic, single point]"
8,O=C(NCc1cc(F)ccc1F)c1csc(N2CCN(c3ccccc3F)CC2)n1,"inconclusive: 39.8 µM [cytotoxic, single point]"
9,CC(C)c1nc2c(c(-c3ccc(Cl)cc3)n1)CN([S+](=O)([O-])c1ccccc1)CC2,"inconclusive: 8.91 µM [cytotoxic, partial curve, poor fit]"
10,O=C1c2[nH]nc(-c3ccccc3O)c2C(c2cccc(OCc3ccccc3)c2)N1CCCO (configuration not stated),"inconclusive: 31.6 µM [cytotoxic, single point]"
11,Cc1ccccc1N1CCN(C(=O)c2ccc(Cn3ccn4nc5c(c4c3=O)CCCC5)cc2)CC1,"inconclusive: 28.2 µM [cytotoxic, partial curve, poor fit]"
12,COc1ccc(-c2cc3c(ccn3Cc3ccncc3)c(N3CCOCC3)n2)cn1,inactive
13,CCS(=O)(=O)N1CCCc2cc(C(=O)Nc3cc([N+](=O)[O-])ccc3C)ccc21,"inconclusive: 39.8 µM [cytotoxic, single point]"
14,Fc1ccc(-c2cnc3n2C[C@H](CN(Cc2ccccc2)Cc2ccccc2)OC3)cc1,"inconclusive: 56.2 µM [cytotoxic, single point]"
15,COc1ccc(CN(Cc2ccc(OC)cc2)[C@@H]2CO[C@H](CNC(=O)CC(C)(C)C)[C@H]2O)cc1,inactive
16,CCN(CC)Cc1cccc(/C=C/c2nc3ccc(F)cc3c(=O)n2-c2ccccc2Cl)n1,"inconclusive: 11.9 µM [cytotoxic, partial curve, poor fit]"
17,Cc1nc(CN2C[C@H](C(=O)Nc3cccc(F)c3)C[C@@H]2c2ccc(F)cc2)cs1,inactive
18,Cc1nn2c(c1-c1cccnc1N1CCOCC1)N(CCC(C)C)CCC2,"inconclusive: 25.1 µM [cytotoxic, partial curve, poor fit]"
19,Cc1ccsc1C(=O)N1CCc2c(nc3cc[nH]n3c2=O)C1,inactive
20,CC1CCCCN1CCNC(=O)c1ccc(Cn2c(SCc3ccccc3)nc3cccnc32)cc1 (configuration not stated),"inconclusive: 8.91 µM [cytotoxic, partial curve, poor fit]"
21,Cc1ccc(C(=O)N2CCCN(c3cc(-c4ccc(Cl)cc4)[nH]n3)CC2)cc1C,"inconclusive: 17.8 µM [cytotoxic, partial curve, poor fit]"

row,SMILES,Potency
1,COCC(=O)N[C@H]1CC[C@]2(C)CCC([C@H](C)C(=O)NCc3ccccc3OC)[C@H](O)[C@H]2[C@@H]1C (some centres not stated),inactive
2,Cc1cccc(OCCc2noc(C3CNC3)n2)c1,"inconclusive: 39.8 µM [cytotoxic, single point]"
3,Cn1c(NCc2cccc(Cl)c2)nc2ccccc21,"inconclusive: 14.1 µM [cytotoxic, partial curve, poor fit]"
4,N#Cc1cccc(CN2C[C@@H](CO)[C@H](c3ccccn3)C2)c1,inactive
5,O=C(NCc1ccccc1)c1cccn1-c1nnc(N2CCCCC2)s1,"inconclusive: 25.1 µM [cytotoxic, partial curve, poor fit]"
6,COc1cc(OC)c(NC(=O)C2=C(C)C(=O)OC23CCN(C(C)=O)CC3)cc1Cl,"inconclusive: 39.8 µM [cytotoxic, single point]"
7,C=C1C(=O)O[C@@H]2/C=C(\CO)CC/C=C(/C=O)C[C@@H](O)[C@@H]12,"inconclusive: 33.6 µM [cytotoxic, single point]"
8,Cc1ccc(CNC(=O)N2CCC(c3noc(-c4ccccc4)n3)C2)cc1 (configuration not stated),inactive
9,COc1ccccc1Cn1cc(C(=O)c2ccccc2)c(=O)c2cc(OC)c(OC)cc21,"inconclusive: 28.2 µM [cytotoxic, partial curve, poor fit]"
10,CCCn1c(C)cnc1CC1CCN(C(=O)NCc2ccc(C)cc2)CC1,"inconclusive: 8.91 µM [cytotoxic, single point]"
11,Cc1noc2c(-c3cccc(CO)c3)cc(-c3cccc(C(F)(F)F)c3)nc12,"inconclusive: 35.5 µM [cytotoxic, single point]"
12,CN(Cc1ccccc1)C(=O)CSc1c2c(nc3ccc(Cl)cc13)CCCC2,"inconclusive: 25.1 µM [cytotoxic, partial curve, poor fit]"
13,CC1(C(=O)N2CCC(c3ccccc3)CC2)CCc2cnc(Nc3ccncc3)nc21 (configuration not stated),"inconclusive: 31.6 µM [cytotoxic, partial curve, poor fit]"
14,Cc1c(-c2ccccc2F)[nH]c2ccc(CNS(=O)(=O)C3CC3)cc12,inactive
15,C=C1/C(=C/C=C2\CCC[C@]3(C)[C@@H]([C@H](C)/C=C/C(=O)C4CC4)CC[C@@H]23)C[C@@H](O)C[C@@H]1O,active: 23.8 µM
16,CCC1CN(C(=O)N2CCC(C(=O)NCCCc3ccccc3)CC2)c2cc(C)ccc2O1 (configuration not stated),"inconclusive: 39.8 µM [cytotoxic, single point]"
17,Cc1ccc(NC(=O)c2cccc(C(C)(C)C#N)c2)cc1Nc1ccc2ncn(C)c(=O)c2c1,"inconclusive: 42.9 µM [cytotoxic, single point]"
18,Cc1cccc(NC(=O)c2cccc(N3CCCS3(=O)=O)c2)c1,"inconclusive: 10 µM [rising, partial curve, poor fit]"
19,Cn1c(=O)c(-c2ccccc2)nc2cnc(N3CCOCC3)nc21,"inconclusive: 20 µM [rising, partial curve]"
20,CCC(CC)C(=O)NC[C@@H]1C=C(C)[C@H](Cc2nc3ccccc3n2C)C[C@H]1C(C)C,"inconclusive: 39.8 µM [cytotoxic, partial curve, poor fit]"
21,CC(C)c1noc(-c2cccn3c(CNC(=O)CCc4ccccc4)nnc23)n1,inactive

row,SMILES,Potency
1,CCOC(=O)c1cc2c(=O)n3ccccc3nc2n(CC(C)C)c1=NC(=O)C(C)Oc1ccccc1 (configuration not stated),"inconclusive: 39.8 µM [rising, single point]"
2,CC[C@H]1CN(C(=O)Nc2cccc(C(F)(F)F)c2)CC[C@H]1CC(=O)NCc1ccccc1,inactive
3,COCCN1C(=O)CCc2cc(NC(=O)c3ccc(C)c(C)c3)ccc21,inactive
4,COCCN1CCOc2nc(-c3ccc(Oc4ccccc4)cc3)ncc2C1=O,inactive
5,CCOc1ccc(CCNC(=O)CSCc2nc(-c3cccc(C)c3)oc2C)cc1OCC,"inconclusive: 39.8 µM [cytotoxic, single point]"
6,COCC(=O)N1CCCC1C(=O)N1CCC(N2CCOCC2=O)CC1 (configuration not stated),"inconclusive: 0.631 µM [rising, partial curve, poor fit]"
7,COc1ccc(-c2[nH]nc3ncc(C(=O)NCc4ccc(F)cc4)nc23)c(C)c1,"inconclusive: 50.1 µM [cytotoxic, single point]"
8,COc1ccc(-c2noc(CCCC(=O)NCCc3noc(-c4ccccc4)n3)n2)cc1OC,inactive
9,CCS(=O)(=O)N1CCOCCNC(=O)[C@H]2CCCC[C@H]21,"inconclusive: 31.6 µM [cytotoxic, single point]"
10,NCCCN1C(=O)CC[C@H]2CN(C(=O)c3cnn4ccccc34)CC[C@H]21,inactive
11,COCCn1nc2n(c1=O)CCN(Cc1ccc3[nH]ccc3c1)CC2,inactive
12,CCN(CC)S(=O)(=O)c1ccc2c(c1)N(CC(=O)NCCc1ccc(OC)c(OC)c1)C(=O)CO2,"inconclusive: 2.82 µM [cytotoxic, full curve, poor fit]"
13,COc1ccc(-n2c(=O)c3sc4ccccc4c3n(CC(=O)Nc3cccc(C)c3)c2=O)cc1,"inconclusive: 1.78 µM [cytotoxic, full curve, poor fit]"
14,O=C(CCC1CCN(C(=O)c2ccccc2F)CC1)Nc1ccc(N2CCOCC2)cc1,inactive
15,N#Cc1ccc(CN2CCC[C@H]2C(=O)N2CCCCCCNC(=O)CC2)cc1,"inconclusive: 8.91 µM [cytotoxic, partial curve, poor fit]"
16,CCOc1ccccc1NC(=O)Cn1c(=O)c(-c2noc(CC)n2)c2n(c1=O)CCCC2,inactive
17,O=C(CC1N=C2c3ccccc3N=C(SCc3ccc(Cl)cc3)N2C1=O)NCCc1ccccc1 (configuration not stated),"inconclusive: 25.1 µM [cytotoxic, single point]"
18,O=C(Nc1ccc(-c2cc(C(F)(F)F)nn2-c2ccccc2)cc1)c1cccc(F)c1,"inconclusive: 31.6 µM [cytotoxic, single point]"
19,COc1cccc(CNC(=O)CN2C(=O)N(c3cc(C)ccc3C)S(=O)(=O)c3ccccc32)c1OC,"inconclusive: 17.8 µM [cytotoxic, partial curve, poor fit]"
20,Cc1ccc(CNC(=O)CCCn2c(=O)c3ccccc3n(CC(=O)C(C)(C)C)c2=O)cc1,"inconclusive: 14.1 µM [cytotoxic, partial curve, poor fit]"
